# Results from PubChem BioAssay AID2147 (National Center for Advancing Translational Sciences (NCATS), 2009).
# “And” between values parts separate entries of the source, which are not always exact repeats. Equal values may be shown once. Screen size: about 230,000 compounds; about 3,600 (1.6%) were called active. The inconclusive results got no clear call from the source; some entries with a clear call stand among them for comparison. The call rests on the fitted dose curve; in most records, active means well fitted inhibition curve with a large enough effect (not every such curve was filed as active); inconclusive means small, poorly fitted or top-dose-only effect, or another doubt; inactive means no such curve, though single readings can be large or run the other way. Potencies of inconclusive entries are doubtful fits and often do not repeat. Some compounds were tested as several samples or in several runs, with calls that do not always agree.
# Target: Lysine-specific demethylase 4E (Homo sapiens) (UniProt B2RXH2)
# Assay: qHTS Assay for Inhibitors of Human Jumonji Domain Containing 2E (JMJD2E)
# Details: JMJD2E catalytic domain, FDH-coupled NADH fluorescence (FDH is formaldehyde dehydrogenase); series mostly up to 57.1 µM
# Further: nearly all actives have a fitted effect of over 50% in size.
# Potency means the concentration at half of the fitted maximal effect; tags describe the fitted curve by direction and shape.
# 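Wherever activity change, negative = inhibition is given: 0% = wells with enzyme and -100% = buffer wells without enzyme.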
# UniProt B2RXH2, sequence (B2RXH2 whole entry, looked up, the tested form may be a part): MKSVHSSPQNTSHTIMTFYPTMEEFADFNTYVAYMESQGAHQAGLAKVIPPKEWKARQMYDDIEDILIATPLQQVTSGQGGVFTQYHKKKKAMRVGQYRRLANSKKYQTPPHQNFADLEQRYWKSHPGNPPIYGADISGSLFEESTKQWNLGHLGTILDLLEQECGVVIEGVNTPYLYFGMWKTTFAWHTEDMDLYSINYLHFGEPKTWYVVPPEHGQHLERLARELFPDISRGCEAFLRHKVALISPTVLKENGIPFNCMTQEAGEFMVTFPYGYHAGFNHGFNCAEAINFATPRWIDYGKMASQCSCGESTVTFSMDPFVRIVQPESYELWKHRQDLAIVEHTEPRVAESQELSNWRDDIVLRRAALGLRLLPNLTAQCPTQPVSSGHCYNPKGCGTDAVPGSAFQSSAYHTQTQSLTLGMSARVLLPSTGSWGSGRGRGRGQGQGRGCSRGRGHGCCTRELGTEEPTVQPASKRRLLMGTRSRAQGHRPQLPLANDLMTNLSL
SMILES,Potency,"activity change, negative = inhibition"
N#Cc1c(SCc2ccc(Cl)cc2)sc(C(=O)c2ccccc2)c1N,"inconclusive: 39.8 µM [inhibitor, single point]",–
CCN(CC)c1ccc2oc(=O)c(C)nc2c1,"inconclusive: 3.55 µM [inhibitor, full curve]",–
Cc1nc2ccccc2c2oc(C(=O)NCc3ccccn3)cc12,"inconclusive: 35.5 µM [inhibitor, single point]",–
CC(C)n1c(O)c(/C=C2\C=NN=C2c2ccccc2)sc1=S,inactive,–
O=c1c2ccccc2nc(-c2ccco2)n1/N=C/c1ccco1,"inconclusive: 31.6 µM [inhibitor, single point]",–
Cc1ccc(-c2nn(-c3ccccc3)cc2/C=C/C(=O)Nc2cccc(S(N)(=O)=O)c2)cc1,"inconclusive: 31.6 µM [inhibitor, partial curve]",–
COc1cc(/C=N/NC(=O)c2cncc(Br)c2)cc([N+](=O)[O-])c1O,active: 7.94 µM,–
Cc1ccc(N(C)C(=O)N2CCN(c3ccccn3)CC2)cc1,"inconclusive: 39.8 µM [inhibitor, single point]",–
COc1cccc(Cn2c(=S)[nH]c3ccc(N4CCOCC4)cc3c2=O)c1,"inconclusive: 31.6 µM [inhibitor, partial curve]",–
Cc1ccc(CNC(=O)C2(CC(C)C)C=CCN2C(=O)c2ccccc2)o1 (stereo not drawn),inactive,–
O=c1[nH]n(CC2COC3(CCCCC3)O2)c(=O)c2ccccc12 (stereo not drawn),inactive,–
CCC(C(=O)Nc1nc(C)c(C(=O)OC)s1)c1ccccc1 (stereo not drawn),inactive,–
CCOC(=O)Nc1sc(NS(=O)(=O)c2ccccc2)nc1C,inactive,–
Fc1ccc2nc(Nc3nc4c(F)cc(F)cc4s3)sc2c1,"inconclusive: 25.1 µM [inhibitor, partial curve]",–
Cc1nn(CC(=O)Nc2cccnc2)c(C)c1[N+](=O)[O-],inactive,–
C/C(=N\NC(=O)CC#N)c1cc2ccc(O)cc2oc1=O,"inconclusive: 31.6 µM [inhibitor, partial curve]",–
Cc1cccc(NC(=O)Nc2ccc3c(c2)OCO3)n1,"inconclusive: 39.8 µM [inhibitor, single point]",–
COc1ccc(-c2ocnc2C(=O)N2CCN(C(c3ccccc3)c3ccccc3)CC2)cc1,"inconclusive: 35.5 µM [inhibitor, single point]",–
Cc1nc2oc3c(NCc4ccccn4)ncnc3c2c2c1COC(C)(C)C2,"inconclusive: 22.4 µM [inhibitor, partial curve]",–
COc1ccc2c(c1)C(=O)N(c1ccccc1)C(=O)C2,"inconclusive: 28.2 µM [inhibitor, single point]",–
C=CCNC(=O)CSc1nnc(-c2ccccn2)n1Cc1ccccc1,inactive,–
CCN(Cc1cc(=O)n2ccsc2n1)c1cccc2ccccc12,"inconclusive: 28.2 µM [inhibitor, single point]",–
COC(=O)c1ccc(NC(=S)NC(=O)c2c(Cl)cnn2C)cc1,inactive,–
Cn1cccc1/C=N/N1CCN(Cc2cccc3ccccc23)CC1,"inconclusive: 31.6 µM [inhibitor, partial curve]",–

SMILES,Potency,"activity change, negative = inhibition"
CCCCC1=CC2=C(c3ccco3)C(=O)C(C)(OC(=O)c3ccc(OC)cc3)C(=O)C2=CN1CCc1ccccn1 (stereo not drawn),active: 8.91 µM,inactive: -2.28% [at 11.4 µM]
O=C(Nc1nccs1)c1ccc(-c2ccc(F)cc2)o1,inactive,–
CC1(c2ccccc2)NC(=O)N(CC(=O)NCCC2=CCCCC2)C1=O (stereo not drawn),inactive,–
Cc1nn(-c2nc3ccccc3[nH]2)c(=O)c2ccccc12,inactive,–
CCOc1cc2c(C)cc(=O)oc2cc1Cl,"inconclusive: 31.6 µM [inhibitor, single point]",–
Cc1nc2ncnn2c(C)c1CCC(=O)N1CCOCC1,inactive,–
CC(=O)Nc1cccc(NC(=O)CSc2ncc(-c3ccc(Cl)cc3)n2Cc2ccco2)c1,inactive,–
Cc1cc(C)c2nc(NC(=O)c3ccc4c(=O)n5c(nc4c3)CCCCC5)sc2c1,"inconclusive: 28.2 µM [inhibitor, single point]",–
COC(=O)[C@@]1(Cc2ccc(OC)cc2)[C@H]2c3cc(C(=O)N4CCCC4)n(Cc4ccc(Cl)c(C(F)(F)F)c4)c3C[C@H]2CN1C(=O)c1ccccc1,"inconclusive: 25.1 µM [inhibitor, single point]",–
O=C(O)CC(NNC(=O)c1ccccc1)C(=O)Nc1ccc([N+](=O)[O-])cc1 (stereo not drawn),inactive,–
COc1cc2cc(/C=C/C(=O)c3ccco3)c(Cl)nc2cc1OC,"inconclusive: 25.1 µM [inhibitor, partial curve]",–
O=C1c2ccccc2NC2(CCCCC2)N1c1ccc(O)cc1,"inconclusive: 31.6 µM [inhibitor, partial curve]",–
OCCOCCN1CCN(C2=Nc3ccccc3Sc3ccccc32)CC1,"inactive and inconclusive: 35.5 µM [inhibitor, single point]",–
CS(=O)(=O)N1CCN(c2ccccc2NC(=O)c2ccc(-c3ccc(Cl)cc3Cl)o2)CC1,"inconclusive: 28.2 µM [inhibitor, partial curve]",–
COc1cc(-c2oc3cc(O)ccc3c(=O)c2O)ccc1O,"inconclusive: 5.01 µM [inhibitor, single point]",–
O=C1NCCN(Cc2ccc(F)cc2)C1CC(=O)N1CC=C(c2ccccc2)CC1 (stereo not drawn),"inconclusive: 35.5 µM [inhibitor, single point]",–
COc1cc(O)c(C(CCN2CCCC2)c2cc(OC)c(OC)c(OC)c2)c(OC)c1 (stereo not drawn),"inconclusive: 31.6 µM [inhibitor, single point]",–
Cc1cccnc1NC(=O)c1ccc([N+](=O)[O-])o1,"inconclusive: 3.98 µM [inhibitor, partial curve]",–
O=C(c1ccc([N+](=O)[O-])cc1)n1nc(-c2ccccc2)nc1NCc1ccc(F)cc1,"inconclusive: 35.5 µM [inhibitor, single point]",–
CCCC1=[N+](CC(=O)c2ccccc2)CCn2c(C)ccc21,"inconclusive: 31.6 µM [inhibitor, partial curve]",–
Cc1ccc(NS(=O)(=O)c2cc3c4c(cccc4c2)C(=O)NC3=O)cc1C,inactive,–
CCOC(=O)Cc1nn(Cc2nc(-c3ccc(C)cc3)cs2)c(=O)c2ccccc12,inactive,–
O=C(CNC(=O)c1ccccc1C(=O)O)c1ccccc1,inactive,–
Nc1nc(-c2ccc(Cl)cc2)nn1C(=O)c1ccco1,"inconclusive: 28.2 µM [inhibitor, partial curve]",–

SMILES,Potency,"activity change, negative = inhibition"
COc1c(N2CCN(C(=S)Nc3ccccc3)C(C)C2)c(F)cc2c(=O)c(C(=O)O)cn(C3CC3)c12 (stereo not drawn),"inconclusive: 25.1 µM [inhibitor, partial curve]",–
Cc1ccc(C)c(NC(=O)CSc2nnc(Cc3cccn3C)n2-c2ccc(F)cc2)c1,"inconclusive: 25.1 µM [inhibitor, single point]",–
C=C1c2cc(OC)ccc2NC(=O)N1CC,"inconclusive: 31.6 µM [inhibitor, partial curve]",–
CCc1cc(C(=O)OC)c(NC(=O)CC2SC(=NC)N(C)C2=O)s1 (stereo not drawn),inactive,–
Nc1cc(C(=O)O)ccc1N1CCCCCC1,"inconclusive: 39.8 µM [inhibitor, single point]",–
CN(CCCNC(=O)c1cc2c(=O)[nH]c3ccccc3c2n1C)Cc1ccccc1,"inconclusive: 35.5 µM [inhibitor, partial curve]",–
CC1CN(CC(O)COCc2ccc3c(c2)OCO3)CC(C)O1 (stereo not drawn),inactive,–
COC(=O)C1CSC(C(=O)OC)N1C(=O)CN1CC(C)OC(C)C1 (stereo not drawn),"inconclusive: 39.8 µM [inhibitor, single point]",–
O=c1cc(-c2ccccc2O)oc2c(O)c(O)ccc12,active: 11.2 µM,–
O=C(O)c1cccc(-n2cccc2/C=C2\NC(=O)N(Cc3ccc(F)cc3)C2=O)c1,inactive,–
O=C(COC(=O)c1cc([N+](=O)[O-])ccc1NCCO)c1ccccc1,"inconclusive: 39.8 µM [inhibitor, single point]",–
COc1cccc2c3c(c(C)nc12)CC(C)O3 (stereo not drawn),"inconclusive: 31.6 µM [inhibitor, partial curve]",–
N#CCC(=O)N/N=C/c1ccc(OC2CSC2)cc1,"inconclusive: 31.6 µM [inhibitor, single point]",–
O=C(NCc1ccccn1)c1ccc2c(c1)N(Cc1ccccc1)CCS2,"inconclusive: 28.2 µM [inhibitor, partial curve]",–
CCCC(=O)NCCc1cc2cc(C)c(C)cc2[nH]c1=O,"inconclusive: 31.6 µM [inhibitor, single point]",–
COc1ccc(C(F)(F)F)cc1N/C=C\c1nnnn1-c1ccc(C)cc1,"inconclusive: 28.2 µM [inhibitor, single point]",–
C=CCc1c(C)[nH]c2c(OC)cccc2c1=S,"inconclusive: 28.2 µM [inhibitor, partial curve]",–
Cn1cccc1/C=C1\Cc2ccccc2C1=O,inactive,–
Cc1cc(N2CCN(c3ccccc3)CC2)nc(-n2nc(C)cc2C)n1,inactive,–
COc1ccc(NS(=O)(=O)c2ccc(N/N=C/c3ccc(N4CCOCC4)cc3)c([N+](=O)[O-])c2)cc1,inactive,–
CC1C/C(=C/c2ccccn2)C(=O)/C(=C/c2ccccn2)C1 (stereo not drawn),"inconclusive: 39.8 µM [inhibitor, single point]",–
Cc1nnc(NC(=O)CCN2C(=O)/C(=C\c3ccccc3)SC2=S)s1,inactive,–
CN1C(=O)c2ccc(NC(=O)c3c(F)c(F)c(F)c(F)c3F)cc2C1=O,"inconclusive: 28.2 µM [inhibitor, partial curve]",–
CCOC(=O)N1CCN(C(=O)COc2ccc3c(c2)C(=O)CC(C)(C)O3)CC1,"inconclusive: 28.2 µM [inhibitor, partial curve]",–
